# Test results taken from publication PMC4336329 (PLoS ONE, 2015).
# Screen size: about 310,000 compounds; about 2,200 (0.71%) showed an effect of 50% or more. Effects have a minus sign here. The list shows a part of the results.
# Molecular target: human ether-à-go-go-related gene (hERG) potassium channel (human, UniProt Q12809)
# Experiment: primary screen, population patch clamp on CHO cells stably expressing hERG
# Chain of human ether-à-go-go-related gene (hERG) potassium channel (Q12809 whole entry, looked up): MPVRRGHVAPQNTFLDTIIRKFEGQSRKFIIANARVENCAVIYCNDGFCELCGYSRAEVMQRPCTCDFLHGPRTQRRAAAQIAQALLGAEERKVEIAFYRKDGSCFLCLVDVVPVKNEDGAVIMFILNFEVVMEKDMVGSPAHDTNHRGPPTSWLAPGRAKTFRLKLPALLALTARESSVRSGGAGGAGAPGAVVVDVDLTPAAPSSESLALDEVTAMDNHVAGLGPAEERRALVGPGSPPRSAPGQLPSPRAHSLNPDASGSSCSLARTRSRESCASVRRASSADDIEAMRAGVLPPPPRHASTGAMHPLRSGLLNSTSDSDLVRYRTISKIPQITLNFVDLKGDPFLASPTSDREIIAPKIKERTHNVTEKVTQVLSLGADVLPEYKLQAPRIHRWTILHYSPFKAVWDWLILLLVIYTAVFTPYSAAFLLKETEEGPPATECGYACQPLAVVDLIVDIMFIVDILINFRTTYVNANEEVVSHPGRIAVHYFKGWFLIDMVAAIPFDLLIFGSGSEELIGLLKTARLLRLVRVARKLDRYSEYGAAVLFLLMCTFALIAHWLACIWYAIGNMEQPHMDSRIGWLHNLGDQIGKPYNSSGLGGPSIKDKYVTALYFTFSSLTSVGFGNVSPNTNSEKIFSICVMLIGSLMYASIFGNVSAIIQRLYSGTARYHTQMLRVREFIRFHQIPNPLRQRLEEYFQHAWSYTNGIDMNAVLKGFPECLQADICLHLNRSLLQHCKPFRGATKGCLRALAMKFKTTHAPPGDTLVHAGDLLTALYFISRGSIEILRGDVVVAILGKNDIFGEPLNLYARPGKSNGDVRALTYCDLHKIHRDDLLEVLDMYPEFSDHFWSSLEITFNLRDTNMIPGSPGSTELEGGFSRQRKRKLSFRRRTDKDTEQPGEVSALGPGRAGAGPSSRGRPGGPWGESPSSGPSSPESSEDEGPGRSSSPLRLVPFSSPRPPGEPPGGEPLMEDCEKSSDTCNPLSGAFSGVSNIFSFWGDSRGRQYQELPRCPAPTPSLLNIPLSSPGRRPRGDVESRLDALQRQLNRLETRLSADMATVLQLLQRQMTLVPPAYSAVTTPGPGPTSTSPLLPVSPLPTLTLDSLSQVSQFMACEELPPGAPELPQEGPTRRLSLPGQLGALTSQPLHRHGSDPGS
row,SMILES,"hERG current change (%, negative = inhibition) at 1uM [%]"
1,C/C(=N\NC(=O)c1cccc(N/N=C(\C)c2ccc([N+](=O)[O-])cc2)c1)c1ccc([N+](=O)[O-])cc1,3.9
2,Cc1ccc(S(=O)(=O)N(C)c2ccc(OCC(=O)N3CCCC(C(F)(F)F)C3)cc2)cc1 (centres unmarked),-2.11
3,COC(=O)C(C)Sc1nnc(-c2ccncc2)o1 (centres unmarked),-6.76
4,N#Cc1cccc(NC(=O)c2cncn2-c2ccccc2)c1,12
5,Cc1ccc(C2CC(c3ccccc3)n3ncnc3N2)cc1 (centres unmarked),9.95
6,CC(C)(C)CN1CCNC(=O)C1CC(=O)N1CCOc2ccccc2C1 (centres unmarked),14.7
7,Cc1csc(=O)n1CC(=O)OCC(=O)Nc1cc(Cl)ccc1[N+](=O)[O-],0.0411
8,O=C(CCc1ccccc1F)N1CCN(c2ccc(C(F)(F)F)cn2)CC1,18.5
9,Nc1ccc(C(=O)CC(=O)Nc2ccc(Cl)cc2)cc1,-0.954
10,COc1ccc(S(=O)(=O)N2CCN(CC(=O)Nc3ccccc3Cl)CC2)cc1,10.1
11,COc1ccc(C)cc1NC(=O)C(Sc1nnc(Nc2ccccc2F)s1)c1ccccc1 (centres unmarked),14.9
12,COc1ccc(CN2C(=O)CN=C2Nc2ccc(C)cc2C)cc1.Cl,-1.63
13,Cc1c(Cc2c(C)n(C)n(-c3ccccc3)c2=O)c(=O)n(-c2ccccc2)n1C,4.05
14,CCOC(=O)c1cccc(NC(=O)c2ccc3c(c2)OCO3)c1,2.35
15,CCCCCCCC[n+]1cccc(C(=O)N2c3c(nc(N)[nH]c3=O)NC(C)C2C)c1.[I-] (centres unmarked),10.3
16,O=C(/C=C/c1cccc([N+](=O)[O-])c1)N1CCN(S(=O)(=O)c2cccs2)CC1,-17.6
17,COc1cc(/C=C2\CC/C(=C\c3cc(OC)c(O)c(OC)c3)C2=O)cc(OC)c1O,8.77
18,C/C(CC(=O)Nc1ccc(Cl)c(C(F)(F)F)c1)=N\NC(N)=S,11.2
19,CC(C)CC(=O)Nc1nnc(CCc2ccccc2)s1,8.54
20,N#Cc1ccc(COC(=O)c2cc(=O)c3ccccc3o2)cc1,9.46
21,N#CCc1ccc(NC(=O)Cn2c(=O)oc3ccccc32)cc1,14.8
22,N/C(=N\N=C\c1cccc(O)c1)c1nonc1N,15.3

row,SMILES,"hERG current change (%, negative = inhibition) at 1uM [%]"
1,COc1ccc(-c2ccc(CCC(=O)O)n2Cc2ccco2)cc1,6.23
2,CCSc1nnc2n(-c3ccc(OC)cc3)c(=O)c3c4c(sc3n12)CCCC4,1.41
3,O=C(Nc1cccc(NS(=O)(=O)c2ccc(S(=O)(=O)NC3CC3)cc2)c1)c1ccccn1,8.94
4,COc1ccc(-c2noc3c2-c2nc(-c4ccc(Br)cc4)sc2CC3)cc1,15
5,CC(=O)Oc1ccccc1C1OCCN1C(C)=O (centres unmarked),9.33
6,CS(=O)(=O)N(Cc1ccccc1)c1ccc(C(=O)NCCSc2ccccn2)cc1,7.96
7,Oc1c(Br)cc(Br)cc1CNc1ccc(F)cc1,12.9
8,O=S(=O)(Cc1ccccc1)N1CCC(c2nc(-c3cccs3)no2)CC1,-1.55
9,O=C(Cn1nc(-c2ccccc2)c2ccccc2c1=O)NCC1CCCO1 (centres unmarked),11.5
10,Cc1ccc(SCCC(=O)Nc2ccc(OCc3ccccc3)cc2)cc1,13
11,COc1ccc(O)c(/C=N/c2nc3ccccc3n2C)c1,3.85
12,Cc1nnc(Nc2ccc(Cl)c(C(F)(F)F)c2)[nH]c1=O,3.48
13,O=C(CSc1nc2[nH]c(=O)cc(O)c2s1)Nc1cccc(Br)c1,18.8
14,O=C(COC(=O)C1CC2CCCC(C1)C2=O)NC(=O)c1ccc(OC(F)F)cc1 (centres unmarked),10.5
15,CN1CCN(c2ccc(Cl)cc2NC(=O)CN2C(=O)NC(C)(c3ccccc3)C2=O)CC1 (centres unmarked),5.3
16,CCCS(=O)(=O)N1CCC(C(=O)NCCN(CC)c2ccccc2)CC1,-1.32
17,O=C(c1ccc(F)cc1)N1CCC(N2CCCCCC2)CC1,-4.92
18,NS(=O)(=O)c1ccc(NC(=S)NC(=O)c2ccco2)cc1,8.09
19,Cc1ccc(-n2c(N)c(C(=O)NCc3ccco3)sc2=S)cc1,6.79
20,OCCC1CN(Cc2ccc3nonc3c2)CCN1Cc1ccsc1 (centres unmarked),-49.8
21,Cc1nnsc1C(=O)NNc1c(Cl)cccc1Cl,7.41
22,COc1ccc(C(=O)NC(=S)NNC(=O)c2cccc(C)c2)cc1,14.4
